In PubChem BioAssay AID1347165 (National Center for Advancing Translational Sciences (NCATS), 2019):
In all, about 220,000 compounds went through this assay and about 5,700 (2.6%) were called active. Inconclusive means that the source gave no clear call. Such entries were picked first, then a sample of the others. Calls follow the shape of the dose curve; as a rule, active = well fitted inhibition curve with a large enough effect; inconclusive = small, poorly fitted or top-dose-only effect; inactive = no such curve, though single readings can be large or run the other way. Potencies beside an inconclusive call are fits to weak or partial responses and may not hold up.

The compounds below were run against Lysine-specific demethylase 5B (Homo sapiens) (UniProt Q9UGL1) (assay: Primary screen for KDM5B Histone Demethylases FDH-coupled qHTS). Conditions: FDH-coupled NADH fluorescence (FDH is formaldehyde dehydrogenase); activity change, negative = inhibition: at 57.7 µM (top of the series) unless noted.
Procedure, shortened: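 Compound dilutions met 200 nM (final) KDM5BΔAP for 10 min at room temperature before substrate addition. The substrate mix held 12.5 µM H3K4me3 with cofactors 25 µM α-ketoglutarate and 50 µM Fe²⁺. NADH signal gain over 30 min defined activity.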
Also: nearly all actives have a fitted effect of over 70% in size.
For activity change, negative = inhibition in this document: 0% is about no effect.
Potency is read from the fitted curve at half-maximal effect; tags tell the direction and shape of the fitted curve.

UniProt Q9UGL1, sequence (Q9UGL1 whole entry, looked up): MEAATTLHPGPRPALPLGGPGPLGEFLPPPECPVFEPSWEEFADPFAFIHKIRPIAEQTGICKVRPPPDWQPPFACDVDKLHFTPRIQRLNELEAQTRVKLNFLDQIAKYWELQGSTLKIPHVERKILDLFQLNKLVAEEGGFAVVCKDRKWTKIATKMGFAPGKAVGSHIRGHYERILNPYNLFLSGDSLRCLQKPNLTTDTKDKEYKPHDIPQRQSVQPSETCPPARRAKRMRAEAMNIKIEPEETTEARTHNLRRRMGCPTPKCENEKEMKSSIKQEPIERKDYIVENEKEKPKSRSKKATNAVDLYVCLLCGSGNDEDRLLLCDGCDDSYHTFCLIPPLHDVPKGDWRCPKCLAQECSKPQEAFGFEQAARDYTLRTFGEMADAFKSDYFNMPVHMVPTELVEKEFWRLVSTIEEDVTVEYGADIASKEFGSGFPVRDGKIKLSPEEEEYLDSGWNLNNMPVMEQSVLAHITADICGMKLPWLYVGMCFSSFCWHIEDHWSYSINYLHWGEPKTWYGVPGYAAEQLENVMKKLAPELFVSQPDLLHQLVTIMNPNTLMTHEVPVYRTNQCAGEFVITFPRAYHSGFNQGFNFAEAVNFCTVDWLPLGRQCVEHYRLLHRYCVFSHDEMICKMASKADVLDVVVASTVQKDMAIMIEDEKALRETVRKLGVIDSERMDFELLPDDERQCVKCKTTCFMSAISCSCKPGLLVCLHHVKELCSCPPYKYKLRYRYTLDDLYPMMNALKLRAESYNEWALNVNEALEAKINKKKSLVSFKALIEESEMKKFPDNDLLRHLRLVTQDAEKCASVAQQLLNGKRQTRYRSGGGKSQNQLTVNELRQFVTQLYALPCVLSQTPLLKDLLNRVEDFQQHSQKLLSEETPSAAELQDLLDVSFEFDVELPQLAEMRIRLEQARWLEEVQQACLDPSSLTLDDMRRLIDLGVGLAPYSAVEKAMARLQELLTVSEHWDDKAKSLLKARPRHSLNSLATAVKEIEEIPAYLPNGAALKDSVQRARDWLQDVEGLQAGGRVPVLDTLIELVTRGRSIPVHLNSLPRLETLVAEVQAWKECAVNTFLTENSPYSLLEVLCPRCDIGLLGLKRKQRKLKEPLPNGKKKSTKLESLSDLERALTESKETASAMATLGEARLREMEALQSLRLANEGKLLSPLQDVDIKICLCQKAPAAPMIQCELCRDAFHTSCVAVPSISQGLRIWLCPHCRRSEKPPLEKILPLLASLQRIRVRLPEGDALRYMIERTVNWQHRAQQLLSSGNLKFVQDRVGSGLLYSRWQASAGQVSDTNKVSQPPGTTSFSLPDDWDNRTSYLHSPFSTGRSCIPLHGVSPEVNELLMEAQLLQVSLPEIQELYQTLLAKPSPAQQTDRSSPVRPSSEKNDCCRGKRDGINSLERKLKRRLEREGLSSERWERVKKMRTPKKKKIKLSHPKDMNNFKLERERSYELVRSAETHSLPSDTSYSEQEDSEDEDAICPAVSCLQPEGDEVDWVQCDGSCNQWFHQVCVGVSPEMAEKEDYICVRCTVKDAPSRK

Row | SMILES | activity change, negative = inhibition | Potency
1 | Cc1ccc2c(CC(=O)OCC(=O)c3ccc4c(c3)OCO4)coc2c1 | inactive: -21% | –
2 | COc1ccc(CNC(=O)c2cn(-c3cccc(OC)c3)c(=O)c3ccccc23)cc1 | – | inconclusive: 50.1 µM [inhibitor, single point]
3 | CCOc1ccc(/C=C/c2nc(C#N)c(NCCCOC)o2)cc1 | – | inconclusive: 2.51 µM [inhibitor, full curve, poor fit]
4 | O=C(CCNc1ncnc2nc[nH]c12)NCc1ccccc1 | inactive: 9.52% | –
5 | O=C1CC(c2ccccc2)N(C(=O)C2CC2)CCCN(C(=O)c2ccoc2)CCN1 (stereo not given) | inactive: -22.6% | –
6 | COc1ccc(-c2cc3ccc(O)c(CN4CCCC4)c3oc2=O)cc1OC | – | inconclusive: 31.6 µM [inhibitor, partial curve, poor fit]
7 | Cc1cccc(OCCc2noc(C3CN(C(=O)NCC4CCCO4)C3)n2)c1 (stereo not given) | inactive: 2.77% | –
8 | Cc1cccc(OCCC(=O)OCC(=O)c2cc3ccccc3o2)c1 | inactive: -1.83% | –
9 | Cc1ccc2oc(C(=O)N3CCC(c4nc5ccccc5o4)CC3)c(C)c2c1 | – | inconclusive: 22.4 µM [inhibitor, partial curve, poor fit]
10 | NC(=O)CCNC(=O)C1=C[C@@H](NC(=O)c2cccc(F)c2)[C@@H](O)[C@H](O)C1 | – | inconclusive: 28.2 µM [inhibitor, partial curve, poor fit]
11 | Cc1ccc(C(=O)N2CCc3cn(C)c4cccc(c34)C2)cc1 | – | inconclusive: 39.8 µM [inhibitor, partial curve, poor fit]
12 | Cc1ccc(C(=O)NC2CCCN(c3cc(-c4ccccc4)[nH]n3)C2)cc1 (stereo not given) | inactive: -8.7% | –
13 | CNC(=O)c1cccc(-n2ccnc2-c2ccc(C#CCCO)cc2)c1 | – | inconclusive: 25.1 µM [inhibitor, single point]
14 | CCN(CC)C(=O)CSc1nn(CC)c2nc3c(c(=O)n12)C(C)(CC)Cc1ccccc1-3 (stereo not given) | inactive: -7.3% | –
15 | CCn1nc(CC(C)C)cc1C(=O)NC1CCCN(c2ncccn2)C1 (stereo not given) | – | inconclusive: 28.2 µM [inhibitor, single point]
16 | O=C(OCc1nc2ccccc2o1)c1ccccc1Br | inactive: 8.02% | –
17 | O=C(O)C(c1c[nH]c2cc(OCc3ccccc3)ccc12)N1CCN(c2ccc(Cl)cc2)CC1 (stereo not given) | inactive: -24.9% | –
18 | CC1CN(C(=O)Nc2cccc(CN3CCOC3=O)c2)CCO1 (stereo not given) | inactive: 9.38% | –
19 | CCc1ccc(NC(=O)CSc2nc3c([nH]c4ccccc43)c(=O)n2-c2cccc(OC)c2)cc1 | – | inconclusive: 31.6 µM [inhibitor, partial curve, poor fit]
20 | COc1ccc(N2CC(c3noc(-c4ccc(N(C)C)cc4)n3)CC2=O)cc1 (stereo not given) | – | active: 35.5 µM
21 | CC(=O)N1C[C@@H]2CCCN3CCC[C@@H]([C@H]23)[C@H]1CCCC(=O)NCCN(C)C | – | active: 28.2 µM
22 | COc1cc(C(=O)O/N=C(\N)Cc2ccc([N+](=O)[O-])cc2)cc(OC)c1OC | – | inconclusive: 39.8 µM [inhibitor, partial curve, poor fit]
23 | Cc1cc(C)n2c(Nc3ccc(C(C)C)cc3)c(-c3ccsc3)nc2n1 | inactive: 7.27% | –

Row | SMILES | activity change, negative = inhibition | Potency
24 | O=C(Nc1cccc2ccccc12)O[C@@H]1CO[C@H]2[C@@H]1OC[C@@H]2NS(=O)(=O)c1cccc2cccnc12 | – | inconclusive: 20 µM [inhibitor, single point]
25 | CN(C)CCCC(=O)N1Cc2ccccc2CC2(CCCCN2Cc2ccccc2)C1 (stereo not given) | inactive: 9.74% [at 115 µM] | –
26 | Cc1cc(Nc2ncncc2-c2nc(-c3ccccc3)no2)ccc1F | – | inconclusive: 25.1 µM [inhibitor, partial curve]
27 | Cc1oc2ncn(CC(C)C)c(=O)c2c1C(=O)NCCc1ccccc1 | inactive: -8.74% | –
28 | CN(C)c1cccc(Nc2cc3c(cn2)NCCN(Cc2ccccc2)C3)c1 | – | active: 25.1 µM
29 | CCCN1CCc2c(sc(NC(=O)c3ccc(S(=O)(=O)N(C)c4ccccc4)cc3)c2C(=O)NC)C1 | – | inconclusive: 31.6 µM [inhibitor, single point]
30 | COc1ccc(-c2cn3cccnc3n2)cc1NC(=O)Cc1ccccc1 | – | inconclusive: 14.1 µM [inhibitor, partial curve, poor fit]
31 | COCCCNc1cc(-c2cccc(C(F)(F)F)c2)nc2c(C)noc12 | inactive: -5.37% [at 86.2 µM] | –
32 | CCN1CCN(c2nc(-c3ccccc3)c3ccccc3n2)CC1 | – | inconclusive: 20 µM [inhibitor, partial curve, poor fit]
33 | Cc1cc(NC(=O)c2ccc3c(c2)N(C)C2CCCCCN2C3=O)ccc1Br (stereo not given) | – | inconclusive: 28.2 µM [inhibitor, partial curve, poor fit]
34 | NC(=O)C1CCCN(CCNc2cc(-c3ccccc3)nc3ccnn23)C1 (stereo not given) | – | active: 31.6 µM
35 | CCCNC(=O)[C@@H]1CCCN1[C@@H](C(=O)NC)c1ccc(OC)cc1 | – | inconclusive: 25.1 µM [inhibitor, partial curve]
36 | COCCCNC(=O)c1cnc2sc(N3CCCCCC3)nn2c1=O | – | inconclusive: 31.6 µM [inhibitor, partial curve, poor fit]
37 | CCCCN(CCCNC(=O)CN1N=C(c2ccc(C)cc2)CCC1=O)c1ccccc1 | – | inconclusive: 44.7 µM [inhibitor, single point]
38 | Cc1ccc(-c2cnc(CCC(=O)Nc3ccc(F)c(F)c3)o2)cc1C | – | inconclusive: 22.4 µM [inhibitor, single point]
39 | Cc1c(-c2cccc(NC(=O)Nc3ccc(Cl)cc3)c2)nc2ncccn12 | – | inconclusive: 28.2 µM [inhibitor, partial curve, poor fit]
40 | CN(C(=O)c1cc2ccccc2oc1=O)C1CCCN(CCCc2ccccc2)C1 (stereo not given) | – | inconclusive: 15.8 µM [inhibitor, partial curve, poor fit]
41 | Fc1ccc(CNc2ncnc3onc(-c4cc(F)cc(F)c4)c23)cc1 | inactive: 5.66% | –
42 | COc1cccc(CCC(=O)N2CC3CC(C2)[C@H]2CCCC(=O)N2C3)c1 (stereo not given in full) | inactive: 0.0773% | –
43 | Cc1nc2cc(NC(C)C(=O)Nc3ccc(C(C)C)cc3)ccc2o1 (stereo not given) | – | inconclusive: 11.2 µM [inhibitor, partial curve, poor fit]
44 | O=c1cc(-c2ccccc2F)oc2ccc(F)cc12 | inactive: 14.1% | –
45 | Cc1cc(=O)n(CC(=O)Nc2cc(Cl)ccc2C)c(N2CCOCC2)n1 | inactive: 11% | –
